Results on 43 molecules are retold here after ChEMBL document CHEMBL4888484, “Replenishing the malaria drug discovery pipeline: Screening and hit evaluation of the MMV Hit Generation Library 1 (HGL1) against asexual blood stage Plasmodium falciparum ,using a nano luciferase reporter read-out” (2022).

Among all 150,000 compounds or so, about 540 (0.36%) showed an effect of 50% or more. This is one part of the list.

The assay concerns Plasmodium falciparum. The assay can be described thus: Primary screen in NF54 nanoGlo assay, in single point, at 2uM, 72h; a lower Z score goes with more inhibition. In kind it is functional, Erythrocyte. The note with it: timepoint 72 hour.
For `O=C1O[C@H]2CN(CCCc3ccccc3)C[C@H]2N1Cc1ccccn1`, the “% Inhibition” value is on record as -16% and the Z score is given as 1.43.

Consider `Cc1cccc2oc(Cn3cnc(-c4ccccc4)c3[C@H]3CCOC3)nc12`, for which the “% Inhibition” value is on record as -10% and the Z score stood at 0.99.

Take `CC1CN(C)CCN1C(=O)CCCCC(=O)N1CCN(C)CC1C` (stereo unspecified): the “% Inhibition” value was -12% and the Z score turned out to be 1.92.

Regarding `CCc1nnsc1C(=O)N[C@@H](C)c1cccs1`, the “% Inhibition” value turned out to be 4% and the Z score is given as -0.59.

`Cc1cc(NCCN2CCC[C@H](C)C2)nc(N(C)C)n1`: the “% Inhibition” value is listed as 11% and the Z score is -1.27.

As to `COc1ccc([C@H](C)NCc2cnc3c(c2)c(C)nn3C)c(C)c1OC`, the “% Inhibition” value is listed as 3% and the Z score is recorded as -0.26.

Regarding `COCCN(CC(N)=O)CC(=O)N1CCCCCC1`, the “% Inhibition” value is -11% and the Z score was determined as 1.37.

In the case of `C[C@H]1Cc2ccccc2N1C(=O)c1ccc(=O)n(CCC(=O)NCc2ccccc2)n1`, the “% Inhibition” value turned out to be 5% and the Z score is -0.76.

Take `CC(C)(C)OC(=O)N1CCC[C@@H]1CCCNC(=O)C1CC(=O)C1`: the “% Inhibition” value is listed as -1% and the Z score was found to be 0.12.

`CN(CC1CC1)C(=O)NC1C2CCCOC2C1(C)C` (stereo unspecified): the “% Inhibition” value is -7% and the Z score is 0.97.

On to `CCOC(=O)c1cnc(C)c(NC(=O)NCc2nncn2C)c1`, for which the “% Inhibition” value is recorded as -7% and the Z score turned out to be 1.17.

In the case of `CCCCCOCC(=O)N[C@H](C)c1cnccn1`, the “% Inhibition” value is recorded as -8% and the Z score stood at 1.31.

Turning to `Cc1ccc(-c2nn(CN3CCC(Cc4ccccc4)CC3)c(=S)o2)cc1C`, the “% Inhibition” value is reported as -8% and the Z score turned out to be 1.5.

As to `COc1ccc(-c2cn3ccccc3c2S(=O)(=O)c2ccc(F)cc2)cc1OC`, the “% Inhibition” value is reported as -6% and the Z score is recorded as 0.97.

As to `Cc1nc(C(C)(C)NS(C)(=O)=O)sc1C`, the “% Inhibition” value is reported as -4% and the Z score was found to be 0.52.

For the molecule `CCCc1nnc(NC(=O)N(C)Cc2noc(-c3ccccc3)n2)[nH]1`, the “% Inhibition” value is -14% and the Z score is listed as 1.95.

Take `COc1ccc(-c2cc3cc(OC)c(OC)cc3c(Cc3cccc4ccccc34)n2)cc1`: the “% Inhibition” value is on record as -7% and the Z score was determined as 1.17.

Turning to `Cn1cc(CNc2cc(F)ccc2N2CCCCC2)cn1`, the “% Inhibition” value was -5% and the Z score amounted to 0.56.

As for `CC(C)C(=O)NCCN(C)C(=O)C#C[C@H]1CCOC1`, the “% Inhibition” value is reported as -5% and the Z score is on record as 0.6.

With `CCc1noc2nc(C)n(CC(=O)NCCc3ccccc3)c(=O)c12`, the “% Inhibition” value is listed as -5% and the Z score is listed as 0.69.

For `O=C(NCc1ccco1)c1nc(CCS(=O)(=O)c2ccccc2)no1`, the “% Inhibition” value was -13% and the Z score was found to be 1.76.

As to `O=C(NC[C@@H](CO)Cc1ccccc1)c1nscc1Br`, the “% Inhibition” value is -8% and the Z score was 1.15.

For `CCN(CC)CCN(C(=O)c1ccc(S(=O)(=O)N2CCCCC2)cc1)c1nc2cc3c(cc2s1)OCCO3`, the “% Inhibition” value turned out to be 31% and the Z score is -3.94.

`Cc1cc(Cl)ccc1S(=O)(=O)N1CCc2nnc([C@H]3CCN(C(C)C)C3)n2CC1`: the “% Inhibition” value is given as 30% and the Z score is -4.06.

For the molecule `c1ccc(C(c2ccccc2)c2noc3c2CN(Cc2cccnc2)CC3)cc1`, the “% Inhibition” value was determined as 9% and the Z score is -1.11.

As to `Cc1ccccc1C(O)CNS(=O)(=O)N1CCCC(C)C1` (stereo unspecified), the “% Inhibition” value was -1% and the Z score worked out at 0.11.

Regarding `O=C(c1c(Cl)cccc1Cl)N1CCn2cncc2C1`, the “% Inhibition” value was 0% and the Z score is recorded as 0.1.

`CN(Cc1ccccc1)[C@H]1CCN(CC(=O)Nc2nccs2)C1`: the “% Inhibition” value is -14% and the Z score was 2.75.

As to `NC(=O)c1c(NC(=O)c2cc(-c3ccc(Cl)cc3Cl)nc3ccccc23)sc2c1CCCCC2`, the “% Inhibition” value is on record as 29% and the Z score is on record as -3.9.

With `O=C(O)c1cc2cc(Oc3ccccc3)ccc2n2nnnc12`, the “% Inhibition” value was -2% and the Z score turned out to be 0.24.

`COc1ccccc1-c1nnc(-c2cnc3onc(C4CCCC4)c3c2)o1`: the “% Inhibition” value is -5% and the Z score came to 0.77.

Regarding `CCN1C(=O)CCN(C(=O)Nc2ccccc2)CC12CCOCC2`, the “% Inhibition” value is given as -9% and the Z score came out at 1.13.

Consider `O=C(CO)N1CCOc2c(F)cccc2C1`, for which the “% Inhibition” value was 2% and the Z score is recorded as -0.3.

Consider `O=C(NCc1cccnc1)c1cnn2c3c(cnc12)CCCC3`, for which the “% Inhibition” value is 36% and the Z score was -5.27.

Consider `Cc1ccc(NC(=O)CN2C(=O)COC2=O)c(C)c1`, for which the “% Inhibition” value is listed as -12% and the Z score came to 1.4.

Consider `CC(=O)Nc1nc(C(=O)N2CCCCO2)cs1`, for which the “% Inhibition” value is listed as -3% and the Z score is 0.38.

For the molecule `Cc1onc(C(=O)N2CCC3(CCCN(C)[C@@H]3C(N)=O)CC2)c1COc1ccccc1`, the “% Inhibition” value is -5% and the Z score turned out to be 1.03.

With `CN(C)C(=O)CN(C)S(=O)(=O)Cc1ccccc1`, the “% Inhibition” value is -5% and the Z score stood at 0.6.

Consider `O=C(c1cnc(O)cn1)N1CCC[C@H]1c1nc(-c2ccccc2)no1`, for which the “% Inhibition” value came to 8% and the Z score is on record as -0.7.

Take `CCc1nnc(CN(C)Cc2ccc3c4c(cccc24)C(=O)OC3)o1`: the “% Inhibition” value is -9% and the Z score worked out at 1.1.

With `CC(C)n1ncnc1-c1ccc(C(=O)NCc2ccc(CO)cc2)cc1`, the “% Inhibition” value is reported as -3% and the Z score is given as 0.51.

Consider `COc1ccc(NC(C)(C)C(=O)N2C[C@H](CO)[C@@H](CO)C2)cc1`, for which the “% Inhibition” value is listed as 2% and the Z score is -0.38.

As for `Cc1cccc(CN2CCC(c3nc(C)ccc3C(=O)N3CCCCC3)CC2)c1`, the “% Inhibition” value is recorded as -20% and the Z score came to 2.54.

The % Inhibition is the relative decrease from the control value, in per cent.
